Test results taken from the supplement of paper PMC12217912.
This is one part of the list. The full chains were built here from the parent and the listed change. Inactive controls read about 0.05.

B1: TEV protease; numbered along this chain (parent)
chain: MGESLFKGPRDYNPISSSICHLTNESDGHTTSLYGIGFGPFIITNKHLFRRNNGTLVVQSLHGVFKVKDTTTLQQHLVDGRDMIIIRMPKDFPPFPQKLKFREPQREERICLVTTNFQTKSMSSMVSDTSCTFPSGDGIFWKHWIQTKDGQCGSPLVSTRDGFIVGIHSASNFTNTNNYFTSVPKNFMELLTNQEAQQWVSGWRLNADSVLWGGHKVFMVKPEEPFQPVKEATQL

Variants of: B1
Experiment: raw area under fraction-flipped curve 0-4 h after induction (AUC4h, not background-subtracted), DNA-recorder readout of cleavage of the substrate (dimensionless); higher = more cleavage of the substrate by the protease variant
Conditions: temperature: 34 °C; time window: 0-4 h after rhamnose induction
Method: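 In vivo DNA recorder in E. coli TOP10(DE3) ΔrhaA at 34 °C. Each TEVp single-site mutant (parent TEVp 0) is paired with a single-site variant of the 7-mer TEVs (canonical ENLYFQ|S). The substrate sits between flexible linkers in a Bxb1-sfGFP-TEVs-SsrA fusion, so cleavage stabilises Bxb1 and speeds flipping of a recombination array, read by NGS. The value is the raw area under the fraction-flipped curve over 0-4 h after rhamnose induction (AUC4h), with ≥20 reads per time point. It is not background-subtracted; inactive controls average about 0.047.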
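Note: Bxb1 expression induced with 0.2% (w/v) L-rhamnose at OD600 near 0.5, cultures sampled hourly, flipped fraction per protease–substrate barcode pair counted by paired-end Illumina sequencing.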

Variant	area with substrate EALYFQS	area with substrate ECLYFQS	area with substrate EDLYFQS	area with substrate EELYFQS	area with substrate EFLYFQS	area with substrate EHLYFQS	area with substrate EILYFQS	area with substrate ELLYFQS	area with substrate ESLYFQS	area with substrate EVLYFQS	area with substrate EYLYFQS	area with substrate EGLYFQS	area with substrate EKLYFQS	area with substrate EMLYFQS	area with substrate EPLYFQS	area with substrate EQLYFQS	area with substrate ERLYFQS	area with substrate EWLYFQS	area with substrate ETLYFQS
R50L	0.129	0.136	0.191	0.137	0.112	0.173	0.0977	0.114	0.14	0.105	0.119	–	–	–	–	–	–	–	–
L48H	0.0523	0.0457	0.0677	–	–	0.145	–	–	0.059	0.0566	0.0374	0.0606	0.0532	0.0725	0.0582	0.0587	0.0559	–	–
I42W	0.0847	0.0714	0.0871	0.0932	–	0.079	0.0686	0.069	0.0703	0.0747	–	0.0794	0.0841	0.075	0.0615	0.0768	0.0908	–	–
I42G	0.0415	0.0438	0.0605	0.0454	–	0.0778	0.0416	–	0.0428	0.0624	0.0401	0.0429	0.0546	–	0.0323	0.0423	0.0399	–	–
I42D	0.0439	0.0469	–	0.0469	–	–	0.0455	–	–	–	0.0391	0.0491	–	0.0526	–	–	–	–	–
R51M	0.117	0.126	0.154	0.13	–	0.127	0.0886	0.114	0.0901	0.096	0.109	–	0.105	–	–	0.143	0.126	–	–
R51C	0.119	0.115	–	0.138	–	0.12	0.0811	–	0.102	0.0991	–	0.0999	0.104	0.117	0.0559	0.122	0.126	–	–
T44Q	0.0371	0.0405	–	0.0434	0.0418	0.0361	0.0311	–	0.0328	–	0.0346	0.0525	0.0451	0.0438	0.0361	0.0378	0.0501	0.0491	–
T44L	0.0613	0.0624	0.0697	0.0496	0.0646	0.0605	0.0652	0.075	0.0631	0.0574	0.0721	0.0579	0.0488	0.0659	0.0714	0.0664	0.0635	0.0658	0.0554
N53G	0.0819	0.0825	0.115	0.102	0.0901	0.068	0.0937	0.0954	0.0911	0.0841	0.0765	0.0838	0.121	0.0892	–	0.0978	0.0908	0.0837	0.103
N53A	0.106	0.088	0.134	0.0406	–	0.0862	0.0798	0.0692	0.0888	0.0781	–	0.0872	0.089	0.0888	0.116	0.122	0.0844	0.0715	–
N45Q	0.0685	0.0526	0.0636	0.0505	–	0.0508	0.059	0.0526	0.0566	0.0511	–	0.0386	0.0406	0.0285	–	0.0596	0.0516	0.0583	–
